The source gives no read counts; variants with many changes may rest on few reads.
B1: LINE1-mini (parent)
chain: GGCAGAGCUCAACACAGCGUGGCAAAGUGGCUGUGGCUAGACUGCC

Variants of: B1
Assay: self-cleavage, relative activity (ratio to wild type); higher = more cleavage; in vitro, sequencing; the parent is a self-cleaving ribozyme

Variant | self-cleavage
G29A C31U G36C | 0.03
G5U G21C C46A | 0.03
G2A C42U G44U | 0.24
C3A U38A C46U | 0.11
A24C G27C G29A G30C | 1.1
U9C C15U G19C G33C A41G G44U C45G | 0
C3U G44U C46G | 0.06
A16G A24G C31G | 0.01
G5A G30C C31U A41C | 0.03
G27C C31A G35C | 0.02
C23G A26U A41C C42U C45U | 0.03
U9G G35A U43G | 0.02
C18U U34A U43C | 0.01
G1C G7U G21U | 0.04
A16G C31A U34A A39U | 0.01
A4U U38C A41C | 0.04
C13A G33C G35C | 0.02
G1A C10G A25G U34A C45A | 0.04
A14U C18A G21U G29A G40U | 0.03
C10G G19U A39G | 0.02
C3U G5U U34C | 0.03
G2A A12U C13U C31U U34A A41G | 0.11
G5A A14U G35A G36A | 0.12
G5C C10G G27C U28C C45A | 0
G2U C3U C37G U38C | 0.04
G21A G29A U32A | 0.23

Variant | self-cleavage
C3U C31A G40U | 0.02
U9G A16U G19A C31A | 0.01
C13U A14U U28C G30C C31U G35C C46U | 0.09
C3A G17U A24C | 0.08
G22U G35A G40U C45A | 0.14
U9G G22A A26U G30C | 0.03
G1C G5C U20A C31G G40C | 0.02
G5U C10A G44A C46U | 0.05
G7A U9G G19A C45U | 0.08
G22C A26C C46U | 2.45
A4C A6G A26U C45G | 0.14
C8G C15U A25G C45U | 0.15
C3G A11G C37U U43C | 0
G2C C15A G33C | 0.01
A6U U43A G44C C46U | 0.24
C8G G17U G27A U28A C46A | 0.05
A6U G27U G35U U43C | 0.06
A6G C10U A16U U32A | 0.02
A11U U38A C42U C45G | 0.01
A24G G36U C37U | 0.01
G5U U43C C46A | 0.03
G2U A14U G30A | 0.07
G2U U32C C42U | 0.05
C10A G36C U38G | 0.01
C3A A12G C46G | 0.11
U9C C15G G36A U43G | 0.02

Variant | self-cleavage
G1U U34C G44A | 0.02
G5U C15A A16U C37A | 0.11
A4G C10U C23G A24G G40A | 0.05
G1U G5U A12C G44A | 0.02
G7C C8A C18U U28A C31G | 0.12
A4C G17A U38A | 0.02
G5U A6U C10U A16G A26U G30C U38C | 0.03
C8U A11U A12C C15A | 0
G33U A39C G44U | 0.04
G2A G5U G7C C18U C31A U43G | 0.01
C8A C15U U38A C45A | 0.34
A4C C8A G29C C42A | 0.3
A26C C31U A41G | 0.04
A12C C15U G21C | 0.02
G1A C23A G33C A39G A41U | 0.03
G2A A12G A26U G40U U43A C45U | 0.03
G2C C15U U38C | 0.04
C13A U20G U38A | 0.02
C3A A11G G40U C46U | 0.14
G1U C10A A12U A14C G35U | 0.02
C13A C42U C46G | 0.03
G5U A14G G17A | 0.04
G5U C8U G27U U34G U38C | 0.03
A4U G17C G19C A26U G27U | 0.09
C23A G29U G33C | 0.03
C15A U28G G30A | 0.02

Variant | self-cleavage
A6G C10A G22A C45A | 0
C10G C23U U28C | 0.05
C10G G27U C31U G36A G44U C46A | 0.01
C10A G29A C42G | 0.01
C15G G21A G35U | 0.03
A6U U9C C10G U38A | 0.01
C10A A11C C42G | 0.04
C8A G22A G36U C42A | 0.17
A12G A25C U38A G44A | 0.05
G21A A24G G36A C42U | 0.12
C10U G33A G40C | 0.04
C10A G29A G36U | 0.01
G7A C10A G19U U28C G33C | 0.03
C31U A41U U43G | 0.05
G21U U28C U32A G33U | 0.06
C10U A26U C37U C45U | 0.03
G1A C3G C10U G27C | 0.1
C18G U34G U43C | 0.02
C3A U20G C45G | 0.15
A12U U28A C45A | 0.01
G21C G22A U32G U34A C42G | 0.03
A14U C31A G35A C42U | 0.02
A4G A16U G17U G33U | 0.15
G19U A24G G30A C37G | 0.06
G5U G7U C10A C15U U32A C37G | 0.02
U9G A24U U28C | 0.07

Variant | self-cleavage
C3A A4U C42U | 0.11
C3U A25C G27C | 0.07
A11U A25U C37U | 0.02
A16U A41G U43G | 0.02
A6G A12C G17U G36U | 0.07
G5C A12U C13G C15U G30A | 0.01
C15A G17A G35U | 0.04
G1U C18U C23A G30A C46U | 0.48
G5U G7U U9G C42U | 0.03
C3A C31A A41U | 0.14
G36U G40A C45U | 0.24
G7U A11U G33A C37U | 0.02
G5C G30A G33A G40A | 0.05
A25G G27A G36U A41U | 0.03
G5U A6C U28C G33U U34G | 0.05
C8A C10A C18U U32G | 0.01
G1A A12C U28C C46U | 0.05
G1C C3U G5U C10A C46A | 0.01
G17U U34C C45U | 0.01
C3U G27A U38C | 0.06
A6C G7A A11C A14G G35U A41G | 0.02
G7A C10A C23U | 0.03
A24G G33C U34C A41G C45A | 0.04
C13G U34A C37A | 0.03
